# Source: patent US11618753B2 (priority 2018, dated 2023)
# Tested on: MLKL phosphorylation, HT29-L23 human colorectal adenocarcinoma cells
# Assay: cells
# Settings: read-out: pMLKL HCS Cell Assay (IC50, uM)
row,SMILES,IC50 [µM]
1,"COc1ncc(-c2cc(C(F)(F)F)c3c(N)ncnn23)cc1C(=O)N[C@@H]1CN(C(=O)C2(C(F)(F)F)CC2)C[C@@H]1F [Example 1671, 5-(4-amino-5-(trifluoromethyl)pyrrolo[2,1-f][1,2,4]triazin-7-yl)-N-((3R,4S)-4-fluoro-1-(1-(trifluoromethyl)cyclopropane-1-carbonyl)pyrrolidin-3-yl)-2-methoxynicotinamide]",0.008
2,"CC#CC(=O)N1C[C@H](F)[C@H](NC(=O)c2cc(-c3cc(C(F)(F)F)c4c(N)ncnn34)cnc2OC)C1 [Example 1672, 5-(4-amino-5-(trifluoromethyl)pyrrolo[2,1-f][1,2,4]triazin-7-yl)-N-((3R,4S)-1-(but-2-ynoyl)-4-fluoropyrrolidin-3-yl)-2-methoxynicotinamide]",0.055
3,"COc1ncc(-c2cc(C(F)(F)F)c3c(N)ncnn23)cc1C(=O)N[C@@H]1CN(C(=O)C(N)C(F)(F)F)C[C@@H]1F (stereo partly drawn) [Example 1673, N-((3R,4S)-1-(2-amino-3,3,3-trifluoropropanoyl)-4-fluoropyrrolidin-3-yl)-5-(4-amino-5-(trifluoromethyl)pyrrolo[2,1-f][1,2,4]triazin-7-yl)-2-methoxynicotinamide]",0.036
4,"COc1ncc(-c2cc(C(F)(F)F)c3c(N)ncnn23)cc1C(=O)N[C@@H]1CN(C(=O)C(C)(C)n2cnc(C(F)(F)F)c2)C[C@@H]1F [Example 1674, 5-(4-amino-5-(trifluoromethyl)pyrrolo[2,1-f][1,2,4]triazin-7-yl)-N-((3R,4S)-4-fluoro-1-(2-methyl-2-(4-(trifluoromethyl)-1H-imidazol-1-yl)propanoyl)pyrrolidin-3-yl)-2-methoxynicotinamide]",0.051
5,"COc1ncc(-c2cc(C(F)(F)F)c3c(N)ncnn23)cc1C(=O)N[C@@H]1CN(C(=O)C2(N)CCCC2)C[C@@H]1F [Example 1675, 5-(4-amino-5-(trifluoromethyl)pyrrolo[2,1-f][1,2,4]triazin-7-yl)-N-((3R,4S)-1-(1-aminocyclopentane-1-carbonyl)-4-fluoropyrrolidin-3-yl)-2-methoxynicotinamide]",0.134
6,"COc1ncc(-c2cc(C(F)(F)F)c3c(N)ncnn23)cc1C(=O)N[C@@H]1CN(C(=O)C(C)(C)CO)C[C@@H]1F [Example 1676, 5-(4-amino-5-(trifluoromethyl)pyrrolo[2,1-f][1,2,4]triazin-7-yl)-N-((3R,4S)-4-fluoro-1-(3-hydroxy-2,2-dimethylpropanoyl)pyrrolidin-3-yl)-2-methoxynicotinamide]",0.056
7,"COc1ncc(-c2cc(C(F)(F)F)c3c(N)ncnn23)cc1C(=O)N[C@@H]1CN(C(=O)C(N)(CC(C)C)C(F)(F)F)C[C@@H]1F (stereo partly drawn) [Example 1677, N-((3R,4S)-1-(2-amino-4-methyl-2-(trifluoromethyl)pentanoyl)-4-fluoropyrrolidin-3-yl)-5-(4-amino-5-(trifluoromethyl)pyrrolo[2,1-f][1,2,4]triazin-7-yl)-2-methoxynicotinamide]",0.01
8,"COc1ncc(-c2cc(C(F)(F)F)c3c(N)ncnn23)cc1C(=O)N[C@@H]1CN(C(=O)C2(C(F)(F)F)CCN(C(=O)OC(C)(C)C)C2)C[C@@H]1F (stereo partly drawn) [Example 1678, tert-butyl 3-((3R,4S)-3-(5-(4-amino-5-(trifluoromethyl)pyrrolo[2,1-f][1,2,4]triazin-7-yl)-2-methoxynicotinamido)-4-fluoropyrrolidine-1-carbonyl)-3-(trifluoromethyl)pyrrolidine-1-carboxylate]",0.281
9,"COc1ncc(-c2cc(C(F)(F)F)c3c(N)ncnn23)cc1C(=O)N[C@@H]1CN(C(=O)C(C)(C)CNC(=O)OC(C)(C)C)C[C@@H]1F [Example 1679, tert-butyl (3-((3R,4S)-3-(5-(4-amino-5-(trifluoromethyl)pyrrolo[2,1-f][1,2,4]triazin-7-yl)-2-methoxynicotinamido)-4-fluoropyrrolidin-1-yl)-2,2-dimethyl-3-oxopropyl)carbamate]",0.156
10,"COc1ncc(-c2cc(C(F)(F)F)c3c(N)ncnn23)cc1C(=O)N[C@@H]1CN(C(=O)C2(C(F)(F)F)CCNC2)C[C@@H]1F (stereo partly drawn) [Example 1680, 5-(4-amino-5-(trifluoromethyl)pyrrolo[2,1-f][1,2,4]triazin-7-yl)-N-((3R,4S)-4-fluoro-1-(3-(trifluoromethyl)pyrrolidine-3-carbonyl)pyrrolidin-3-yl)-2-methoxynicotinamide]",0.159
11,"COc1ncc(-c2cc(C(F)(F)F)c3c(N)ncnn23)cc1C(=O)N[C@@H]1CN(C(=O)C2(C)COC(C)(C)OC2)C[C@@H]1F [Example 1681, 5-(4-amino-5-(trifluoromethyl)pyrrolo[2,1-f][1,2,4]triazin-7-yl)-N-((3R,4S)-4-fluoro-1-(2,2,5-trimethyl-1,3-dioxane-5-carbonyl)pyrrolidin-3-yl)-2-methoxynicotinamide]",0.121
12,"COc1ncc(-c2cc(C(F)(F)F)c3c(N)ncnn23)cc1C(=O)N[C@@H]1CN(C(C)(C)C(C)=O)C[C@@H]1F [Example 1682, 5-(4-amino-5-(trifluoromethyl)pyrrolo[2,1-f][1,2,4]triazin-7-yl)-N-((3R,4S)-4-fluoro-1-(2-methyl-3-oxobutan-2-yl)pyrrolidin-3-yl)-2-methoxynicotinamide]",0.2
13,"CCO/N=C1\CCC(NC(=O)c2cc(-c3cc(C(F)(F)F)c4c(N)ncnn34)cnc2OC)C1 (centres unmarked) [Example 1683, (E)-5-(4-amino-5-(trifluoromethyl)pyrrolo[2,1-f][1,2,4]triazin-7-yl)-N-(3-(ethoxyimino)cyclopentyl)-2-methoxynicotinamide]",0.188
14,"COc1ncc(-c2cc(C(F)(F)F)c3c(N)ncnn23)cc1C(=O)NC1CC/C(=N\OCc2ccccc2)C1 (centres unmarked) [Example 1684, (E)-5-(4-amino-5-(trifluoromethyl)pyrrolo[2,1-f][1,2,4]triazin-7-yl)-N-(3-((benzyloxy)imino)cyclopentyl)-2-methoxynicotinamide]",0.235
15,"COc1ncc(-c2cc(C(F)(F)F)c3c(N)ncnn23)cc1C(=O)Nc1nnc(Cc2ccccc2)o1 [Example 1685, 5-(4-amino-5-(trifluoromethyl)pyrrolo[2,1-f][1,2,4]triazin-7-yl)-N-(5-benzyl-1,3,4-oxadiazol-2-yl)-2-methoxynicotinamide]",0.478
16,"COc1ncc(-c2cc(C(F)(F)F)c3c(N)ncnn23)cc1C(=O)Nc1ncc(Cc2ccccc2)s1 [Example 1686, 5-(4-amino-5-(trifluoromethyl)pyrrolo[2,1-f][1,2,4]triazin-7-yl)-N-(5-benzylthiazol-2-yl)-2-methoxynicotinamide]",0.015
17,"COc1ncc(-c2cc(C(F)(F)F)c3c(N)ncnn23)cc1C(=O)NC1CCC(c2ccccc2)C1 (centres unmarked) [Example 1688, 5-(4-amino-5-(trifluoromethyl)pyrrolo[2,1-f][1,2,4]triazin-7-yl)-2-methoxy-N-(3-phenylcyclopentyl)nicotinamide]",0.086
18,"COc1ncc(-c2cc(C(F)(F)F)c3c(N)ncnn23)cc1C(=O)NC1CCCC(c2ccccc2)C1 (centres unmarked) [Example 1689, 5-(4-amino-5-(trifluoromethyl)pyrrolo[2,1-f][1,2,4]triazin-7-yl)-2-methoxy-N-(3-phenylcyclohexyl)nicotinamide]",0.01
19,"COc1ncc(-c2cc(C(F)(F)F)c3c(N)ncnn23)cc1C(=O)NC1CCC(O)(c2ccccc2)C1 (centres unmarked) [Example 1690, 5-(4-amino-5-(trifluoromethyl)pyrrolo[2,1-f][1,2,4]triazin-7-yl)-N-(3-hydroxy-3-phenylcyclopentyl)-2-methoxynicotinamide]",0.07
20,"COc1ncc(-c2cc(C(F)(F)F)c3c(N)ncnn23)cc1C(=O)NC1CCCCC(c2ccccc2)C1 (centres unmarked) [Example 1691, 5-(4-amino-5-(trifluoromethyl)pyrrolo[2,1-f][1,2,4]triazin-7-yl)-2-methoxy-N-(3-phenylcycloheptyl)nicotinamide]",0.013
21,"COc1ncc(-c2cc(C(F)(F)F)c3c(N)ncnn23)cc1C(=O)NC1CCCN(c2ccccc2)C1 (centres unmarked) [Example 1694, 5-(4-amino-5-(trifluoromethyl)pyrrolo[2,1-f][1,2,4]triazin-7-yl)-2-methoxy-N-(1-phenylpiperidin-3-yl)nicotinamide]",0.094
22,"COc1ncc(-c2cc(C(F)(F)F)c3c(N)ncnn23)cc1C(=O)N[C@H]1C[C@@H](COCc2ccccc2)N(C(=O)C2CC(F)(F)C2)C1 [Example 1701, 5-(4-amino-5-(trifluoromethyl)pyrrolo[2,1-f][1,2,4]triazin-7-yl)-N-((35,55)-5-((benzyloxy)methyl)-1-(3,3-difluorocyclobutane-1-carbonyl)pyrrolidin-3-yl)-2-methoxynicotinamide]",0.377
23,"COc1ncc(-c2ccc3c(N)nc(F)nn23)cc1C(=O)N[C@@H]1CN(C(=O)[C@@](C)(O)C(F)(F)F)C[C@@H]1F [Example 1702, 5-(4-amino-2-fluoropyrrolo[2,1-f][1,2,4]triazin-7-yl)-N-((3R,4S)-4-fluoro-1-((R)-3,3,3-trifluoro-2-hydroxy-2-methylpropanoyl)pyrrolidin-3-yl)-2-methoxynicotinamide]",0.294
24,"COc1ncc(-c2cc(Cn3ccnc3)c3c(N)ncnn23)cc1C(=O)N[C@@H]1CN(C(=O)C2CC(F)(F)C2)C[C@@H]1F [Example 1703, 5-(5-((1H-imidazol-1-yl)methyl)-4-aminopyrrolo[2,1-f][1,2,4]triazin-7-yl)-N-((3R,4S)-1-(3,3-difluorocyclobutane-1-carbonyl)-4-fluoropyrrolidin-3-yl)-2-methoxynicotinamide]",0.309
25,"COc1ncc(-c2cc(Cn3ccnc3C)c3c(N)ncnn23)cc1C(=O)N[C@@H]1CN(C(=O)C2CC(F)(F)C2)C[C@@H]1F [Example 1704, 5-(4-amino-5-((2-methyl-1H-imidazol-1-yl)methyl)pyrrolo[2,1-f][1,2,4]triazin-7-yl)-N-((3R,4S)-1-(3,3-difluorocyclobutane-1-carbonyl)-4-fluoropyrrolidin-3-yl)-2-methoxynicotinamide]",0.272
26,"COc1ncc(-c2cc(Cn3cnc(C)c3)c3c(N)ncnn23)cc1C(=O)N[C@@H]1CN(C(=O)C2CC(F)(F)C2)C[C@@H]1F [Example 1705, 5-(4-amino-5-((4-methyl-1H-imidazol-1-yl)methyl)pyrrolo[2,1-f][1,2,4]triazin-7-yl)-N-((3R,4S)-1-(3,3-difluorocyclobutane-1-carbonyl)-4-fluoropyrrolidin-3-yl)-2-methoxynicotinamide]",0.15
